Residue numbers refer to the chain shown, from its start. The list shows a part of the results.
T1: RBFOX1 RRM RbFoxmut (Fox-RRM*) (Homo sapiens, UniProt Q9NWB1 109-208, R118D;E147R;N151S;E152T)
T1 sequence: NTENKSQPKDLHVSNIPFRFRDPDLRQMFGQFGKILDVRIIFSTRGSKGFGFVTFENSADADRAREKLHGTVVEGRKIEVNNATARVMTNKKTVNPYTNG

B1: CGCGAUU (DNA:RNA)
RNA: GGGAGACCGGAAUUCAGAUUGUCCCGCGAUUUUAAAUCCCGUCGUAGCCACCA
DNA 1: CAATCTGAATTCCGGTCTCCC
DNA 2: TGGTGGCTACGACGGGATT
B2: ACGAUAA (DNA:RNA)
RNA: GGGAGACCGGAAUUCAGAUUGUCCACGAUAAUUAAAUCCCGUCGUAGCCACCA
DNA 1: CAATCTGAATTCCGGTCTCCC
DNA 2: TGGTGGCTACGACGGGATT
B3: GUUCGAG (DNA:RNA)
RNA: B2 RNA with A25G, C26U, G27U, A28C, U29G, A31G
DNA 1: CAATCTGAATTCCGGTCTCCC
DNA 2: TGGTGGCTACGACGGGATT
B4: UUGGCAU (DNA:RNA)
RNA: B2 RNA with A25U, C26U, A28G, U29C, A31U
DNA 1: CAATCTGAATTCCGGTCTCCC
DNA 2: TGGTGGCTACGACGGGATT
B5: CCCUGGG (DNA:RNA)
RNA: B1 RNA with G26C, G28U, A29G, U30G, U31G
DNA 1: CAATCTGAATTCCGGTCTCCC
DNA 2: TGGTGGCTACGACGGGATT
B6: GAGCGGU (DNA:RNA)
RNA: B2 RNA with A25G, C26A, A28C, U29G, A30G, A31U
DNA 1: CAATCTGAATTCCGGTCTCCC
DNA 2: TGGTGGCTACGACGGGATT
B7: CGGUCGG (DNA:RNA)
RNA: B1 RNA with C27G, G28U, A29C, U30G, U31G
DNA 1: CAATCTGAATTCCGGTCTCCC
DNA 2: TGGTGGCTACGACGGGATT
B8: AAAAUUC (DNA:RNA)
RNA: B2 RNA with C26A, G27A, A30U, A31C
DNA 1: CAATCTGAATTCCGGTCTCCC
DNA 2: TGGTGGCTACGACGGGATT
B9: CUGCGAU (DNA:RNA)
RNA: B2 RNA with A25C, C26U, A28C, U29G, A31U
DNA 1: CAATCTGAATTCCGGTCTCCC
DNA 2: TGGTGGCTACGACGGGATT
B10: UUGUGAU (DNA:RNA)
RNA: B2 RNA with A25U, C26U, A28U, U29G, A31U
DNA 1: CAATCTGAATTCCGGTCTCCC
DNA 2: TGGTGGCTACGACGGGATT
B11: GUGUGUA (DNA:RNA)
RNA: B2 RNA with A25G, C26U, A28U, U29G, A30U
DNA 1: CAATCTGAATTCCGGTCTCCC
DNA 2: TGGTGGCTACGACGGGATT
B12: GCACCGU (DNA:RNA)
RNA: B2 RNA with A25G, G27A, A28C, U29C, A30G, A31U
DNA 1: CAATCTGAATTCCGGTCTCCC
DNA 2: TGGTGGCTACGACGGGATT
B13: UACGCAG (DNA:RNA)
RNA: B1 RNA with C25U, G26A, A29C, U30A, U31G
DNA 1: CAATCTGAATTCCGGTCTCCC
DNA 2: TGGTGGCTACGACGGGATT
B14: GGGUACC (DNA:RNA)
RNA: B1 RNA with C25G, C27G, G28U, U30C, U31C
DNA 1: CAATCTGAATTCCGGTCTCCC
DNA 2: TGGTGGCTACGACGGGATT
B15: AUCAGAC (DNA:RNA)
RNA: B2 RNA with C26U, G27C, U29G, A31C
DNA 1: CAATCTGAATTCCGGTCTCCC
DNA 2: TGGTGGCTACGACGGGATT
B16: AAUUCUA (DNA:RNA)
RNA: B2 RNA with C26A, G27U, A28U, U29C, A30U
DNA 1: CAATCTGAATTCCGGTCTCCC
DNA 2: TGGTGGCTACGACGGGATT
B17: CCAAAGG (DNA:RNA)
RNA: B2 RNA with A25C, G27A, U29A, A30G, A31G
DNA 1: CAATCTGAATTCCGGTCTCCC
DNA 2: TGGTGGCTACGACGGGATT
B18: AAUUCGC (DNA:RNA)
RNA: B2 RNA with C26A, G27U, A28U, U29C, A30G, A31C
DNA 1: CAATCTGAATTCCGGTCTCCC
DNA 2: TGGTGGCTACGACGGGATT
B19: GUCUAUA (DNA:RNA)
RNA: B1 RNA with C25G, G26U, G28U, U31A
DNA 1: CAATCTGAATTCCGGTCTCCC
DNA 2: TGGTGGCTACGACGGGATT
B20: GAACCAA (DNA:RNA)
RNA: B2 RNA with A25G, C26A, G27A, A28C, U29C
DNA 1: CAATCTGAATTCCGGTCTCCC
DNA 2: TGGTGGCTACGACGGGATT

What follows are binders tested against T1, RBFOX1 RRM RbFoxmut (Fox-RRM*) (assay: EMSA; HiTS-Eq, 1 nM pool, 10 min; buffer printed only for the single-RNA assays: 10 mM Tris pH 7.5, 150 mM NaCl, 3.4 mM EDTA, 0.001% NP-40, 30 C). Conditions: tags: His6 N-terminal (pET28a); label: 5' 32P.
Method in brief: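 A pool of RNA with 7 randomized nucleotides, 5′-radiolabelled and with DNA-annealed flanks, was equilibrated at 1 nM for 10 min in 50 µL with purified RbFox RRM, wild type or mutant, across increasing protein concentrations. Free RNA was separated by 8% native PAGE, excised, reverse-transcribed, barcoded by PCR and sequenced. Relative association constants were obtained from read-count changes of each RNA species versus the control reaction and normalised to the cognate motif.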

Binder | binding signal
B1 | 0.0801 KA relative to UGCAUGU
B2 | 0.0818 KA relative to UGCAUGU
B3 | 0.151 KA relative to UGCAUGU
B4 | 0.11 KA relative to UGCAUGU
B5 | 0.0791 KA relative to UGCAUGU
B6 | 0.114 KA relative to UGCAUGU
B7 | 0.096 KA relative to UGCAUGU
B8 | 0.0842 KA relative to UGCAUGU
B9 | 0.0642 KA relative to UGCAUGU
B10 | 0.0831 KA relative to UGCAUGU
B11 | 0.371 KA relative to UGCAUGU
B12 | 0.172 KA relative to UGCAUGU
B13 | 0.06 KA relative to UGCAUGU
B14 | 0.119 KA relative to UGCAUGU
B15 | 0.0803 KA relative to UGCAUGU
B16 | 0.126 KA relative to UGCAUGU
B17 | 0.0693 KA relative to UGCAUGU
B18 | 0.0889 KA relative to UGCAUGU
B19 | 0.124 KA relative to UGCAUGU
B20 | 0.0815 KA relative to UGCAUGU

Reference: paper PMC9911399, “Two distinct binding modes provide the RNA-binding protein RbFox with extraordinary sequence specificity”
